Measured values: paper PMC5892938
Some of the results follow. The source does not settle which construct or isoform was used.

Target: GST-SBP-ILF3 (Homo sapiens) (UniProt Q12906)
Assay: targeted RNA Bind-n-Seq
Conditions: RBNS binding buffer: 25 mM Tris pH 7.5, 150 mM KCl, 3 mM MgCl2, 0.1% Tween, 0.5 mg/mL BSA, 1 mM DTT; 27 nM protein, 750 pM RNA pool; temperature not stated; high values mean tight binding; sequences stand for … in GGGUAAAAGCGAGGUGAA…CGGGACAAGUAUUAUGGG

Sequence | binding signal (log2 fold change)
UUUUUUUUUUGAGACUGCUGCAGUUUCCUA [tttttgagapaired] | 0.605
UUUUUUUUUUGAGACUGCGGCAGUUUCCGG [tttttgagapaired] | 0.873
GUGUGGUGUGUUGGAGUCUAACACACCGCG [gtspaired] | -0.527
UUUUUUUUUUGAGAGCGGCACGCUCUCCAG [tttttgagapaired] | 0.338
UUUUUUUUUUGAGAGCGGAUCGCUCUCCUG [tttttgagapaired] | 0.355
GUGGUGUGUGUUGGAUUCUAACACAUACCA [gtspaired] | -0.228
GGUGGUGGUGUUGGUCCCUAACACCGCUAC [gtspaired] | -0.135
UUUUUUUUUUGAGAGCGGUCCGUUCUCCAG [tttttgagapaired] | 0.68
GUUGGUGGUGUUGGUCUCUAACACCGCCGA [gtspaired] | -0.3
UUUUUUUUUUGAGACUGCUACAGUUUCCAG [tttttgagapaired] | 0.4
GGUUGGUGUGUUGGUUCCUAACACAUCGAC [gtspaired] | -1.08
UUUUUUUUUUGAGAACGAGGCGUUCUCCGG [tttttgagapaired] | 0.103
UUUUUUUUUUGAGAGGGGAUCCCUCUCCAG [tttttgagapaired] | 0.281
UUUUUUUUUUGAGAGGGUCCCCCUCUUCUA [tttttgagapaired] | 0.646
GUGGUUGGUGUUGGCAUCUAACACCGACUA [gtspaired] | -0.774
UUUUUUUUUUGAGAGGGAACCCCUCUUCUA [tttttgagapaired] | -0.0654
GUGGUGUGUGUUGGCGCCUAACACACACUA [gtspaired] | -0.394
UUUUUUUUUUGAGAGGGACUCCCUCUCCGG [tttttgagapaired] | 0.289
GUGUGGUGUGUUGGCUCCUAACACACUACG [gtspaired] | -0.49
UUUUUUUUUUGAGACGGAGCCCGUCUCCUA [tttttgagapaired] | 0.773
UUUUUUUUUUGAGAGGGGAUCCCUUUCCUA [tttttgagapaired] | 0.0989
UUUUUUUUUUGAGAGCGGUACGCUCUCCGG [tttttgagapaired] | 0.106
UUUUUUUUUUGAGAUGGCAGCCAUCUUCUA [tttttgagapaired] | 0.302
GUGUGUUGUGUUGGUCUCUAACACAGCGCG [gtspaired] | -0.732
UUUUUUUUUUGAGAUGGUGACCAUUUCCGG [tttttgagapaired] | 0.588
GUGUUGUGUGUUGGCUCCUAACACACAACG [gtspaired] | -0.362

Sequence | binding signal (log2 fold change)
UUUUUUUUUUGAGAUGGAUACCAUCUUCUA [tttttgagapaired] | -0.336
UUUUUUUUUUGAGAUGGACUCCAUCUUCUG [tttttgagapaired] | 0.249
GUGUGGUGUGUUGGCGCCUAACACAUCACG [gtspaired] | -0.596
UUUUUUUUUUGAGAACGAGCCGUUCUCCAG [tttttgagapaired] | 0.28
UUUUUUUUUUGAGAUGGUUUCCGUCUCCUG [tttttgagapaired] | 0.623
UUUUUUUUUUGAGAUCGGUGCGAUCUUCUA [tttttgagapaired] | 0.185
GUGUGUGGUGUUGGUCUCUAACACCGCAUA [gtspaired] | -0.93
GUUGGUGGUGUUGGUGUCUAACACCGCCGA [gtspaired] | -0.684
UUUUUUUUUUGAGAGCGGAUCGCUCUCCAG [tttttgagapaired] | 0.331
GGUGGUGGUGUUGGCGUCUAACACCAUCGC [gtspaired] | -0.371
UUCUCUCUUCCUCCGAGGGAGGAGGGGAGA [ctspaired] | -0.127
UUUUUUUUUUGAGACGGGAACCGUCUCCUG [tttttgagapaired] | 0.511
UUUUUUUUUUGAGAGGGGCUCCCUCUCCUG [tttttgagapaired] | 0.797
UUUUUUUUUUGAGAACGUAGCGUUCUCCGG [tttttgagapaired] | 0.218
GGUUGGUGUGUUGGCACCUAACACACUAAC [gtspaired] | -0.479
UUUUUUUUUUGAGAUGGCCACCAUCUCCUA [tttttgagapaired] | 0.496
UUUUUUUUUUGAGAGGGUAACCCUUUCCGG [tttttgagapaired] | 0.23
UUUUUUUUUUGAGACCGACACGGUCUCCGG [tttttgagapaired] | 0.288
GGUUGUUGUGUUGGCGCCUAACACAACGAC [gtspaired] | -0.144
UUUUUUUUUUGAGACGGUGACCGUCUCCAG [tttttgagapaired] | 0.377
GGUGUUGGUGUUGGACUCUAACACCGACGC [gtspaired] | -0.5
GUUGUGUGUGUUGGCUCCUAACACACGCAA [gtspaired] | -0.265
UUUUUUUUUUGAGAGGGGAACCCUCUCCUA [tttttgagapaired] | 0.556
UUUUUUUUUUGAGACGGGCCCCGUCUCCUG [tttttgagapaired] | 0.912
UUUUUUUUUUGAGAUCGAUCCGAUCUCCUA [tttttgagapaired] | -0.0508
UUUUUUUUUUGAGAGGGCGUCCCUCUUCUA [tttttgagapaired] | 0.666

Sequence | binding signal (log2 fold change)
UUUUUUUUUUGAGAUGGAUGCCAUUUCCUA [tttttgagapaired] | 0.246
GUGUGUGGUGUUGGCCCCUAACACCGCACG [gtspaired] | -0.127
UUUUUUUUUUGAGAACGAGGCGUUCUCCUA [tttttgagapaired] | 0.0878
UUUUUUUUUUGAGAUCGGCGCGAUCUCCGG [tttttgagapaired] | 0.413
UUUUUUUUUUGAGAGUGGGGCAUUCUCCAG [tttttgagapaired] | 0.522
UUUUUUUUUUGAGAUGGUAUCUAUCUCCUA [tttttgagapaired] | 0.00572
UUUUUUUUUUGAGAUGGUCUCCAUCUCCAG [tttttgagapaired] | 0.342
UUUUUUUUUUGAGAUGGACUCCAUCUCCUA [tttttgagapaired] | 0.195
GUGUGGUGUGUUGGAUCCUAACACAUCGCA [gtspaired] | -0.628
UUUUUUUUUUGAGACGGGAGCCGUCUCCUA [tttttgagapaired] | 0.236
UUUUUUUUUUGAGAUCGGCACGAUCUUCUG [tttttgagapaired] | 0.0444
GGUGUGUGUGUUGGAUCCUAACACAUACGC [gtspaired] | -0.707
GGUGUGUGUGUUGGAAUCUAACACAUACGC [gtspaired] | -0.841
GUUGGUGGUGUUGGUGCCUAACACCGCCAG [gtspaired] | -0.561
UUUUUUUUUUGAGAGGGGACCCCUUUCCAG [tttttgagapaired] | 0.447
UUUUUUUUUUGAGAGCGGGCCGCUCUCCUG [tttttgagapaired] | 0.786
GGUUGUGGUGUUGGCGCCUAACACCGCGAC [gtspaired] | -0.706
UUUUUUUUUUGAGAGGGGUCCCCUCUCCAG [tttttgagapaired] | 1.01
GUUGUGUGUGUUGGCCCCUAACACACGCAG [gtspaired] | -0.117
GUUGGUGGUGUUGGUUCCUAACACCGCCAG [gtspaired] | -0.395
UUUUUUUUUUGAGAGGGACUCCUUCUCCUA [tttttgagapaired] | -0.0271
UUUUUUUUUUGAGAACGAUUCGUUCUCCGG [tttttgagapaired] | -0.0578
UUUUUUUUUUGAGAUCGACACGAUCUCCAG [tttttgagapaired] | 0.0556
GUGUGUGGUGUUGGUACCUAACACCGCAUA [gtspaired] | -0.405
UUUUUUUUUUGAGACCGCGGCGGUCUCCAG [tttttgagapaired] | 0.983
UUUUUUUUUUGAGAUGGGGACUAUCUUCUA [tttttgagapaired] | 0.283

Sequence | binding signal (log2 fold change)
UUUUUUUUUUGAGAACGUAGCGUUCUUCUA [tttttgagapaired] | 0.177
UUUUUUUUUUGAGACUGCUUCAGUCUCCUG [tttttgagapaired] | 0.509
UUUUUUUUUUGAGACUGAUUCAGUCUCCGG [tttttgagapaired] | -0.179
UUUUUUUUUUGAGACCGUGUCGGUCUCCUA [tttttgagapaired] | 0.693
UUUUUUUUUUGAGAGGGAAGCCCUCUCCUA [tttttgagapaired] | 0.307
UUUUUUUUUUGAGAUGGCGACCAUCUCCAG [tttttgagapaired] | 0.334
UUUUUUUUUUGAGAUCGAAACGAUCUUCUG [tttttgagapaired] | -0.307
UUUUUUUUUUGAGAUGGAAACCAUCUCCGG [tttttgagapaired] | -0.049
UUUUUUUUUUGAGAAGGGUCCCUUCUCCAG [tttttgagapaired] | 0.144
GUGUGGUGUGUUGGUCUCUAACACACCACG [gtspaired] | -0.5
GUUGGUGGUGUUGGAUUCUAACACCGCCAG [gtspaired] | -0.389
UUUUUUUUUUGAGACGGGCACUGUCUCCGG [tttttgagapaired] | 1
UUUUUUUUUUGAGACUGAGACAGUCUUCUA [tttttgagapaired] | 0.266
UUUUUUUUUUGAGAGUGUUGCAUUCUCCUA [tttttgagapaired] | 0.24
UUUUUUUUUUGAGAGGGUAUCCCUCUCCUA [tttttgagapaired] | 0.0981
GUGUGGUGUGUUGGACCCUAACACAUCGCA [gtspaired] | -0.417
UUUUUUUUUUGAGAGCGGUGCGCUCUCCGG [tttttgagapaired] | 0.214
UUUUUUUUUUGAGACGGAGUCCGUCUCCUA [tttttgagapaired] | 0.577
GGUUGGUGUGUUGGACCCUAACACAUCAGC [gtspaired] | -0.402
GUGUGUGGUGUUGGCGUCUAACACCGCGCG [gtspaired] | -0.607
GUGUGUUGUGUUGGCACCUAACACAACGCG [gtspaired] | -0.483
UUUUUUUUUUGAGAGGGACGCCCUCUCCUA [tttttgagapaired] | 0.613
GUGGUGUGUGUUGGAGCCUAACACACGCCA [gtspaired] | -0.205
UUUUUUUUUUGAGACGGGGUCCGUCUCCUG [tttttgagapaired] | 0.77
